The results in this text go back to PubChem BioAssay AID743255 (National Center for Advancing Translational Sciences (NCATS), 2014).

Hit rate of the full screen: of about 390,000 compounds, about 910 (0.23%) were called active. Another 5% or so got no clear call; they are omitted. Calls follow the shape of the dose curve; as a rule, active = well fitted inhibition curve with a large enough effect; inconclusive = small, poorly fitted or top-dose-only effect; inactive = no such curve, though single readings can be large or run the other way. The entries are a selection whose mix differs from that of the whole data set.
% is scaled to controls: 0 for no effect and ±100 for the full control effect; potency is read from the fitted curve at half-maximal effect.

This test deals with Ubiquitin carboxyl-terminal hydrolase 1 (Homo sapiens) (UniProt O94782). Briefly: Inhibitors of USP1/UAF1: Primary Screen. Also: nearly all actives have a fitted effect of over 60% in size. Particulars: recombinant USP1/UAF1, Ub-Rhodamine cleavage fluorescence; activity change, negative = inhibition: at 57.1 µM (top of the series). An excerpt: Deubiquitinating enzymes (DUBs) are a class of enzymes that can cleave isopeptide bond formed between the C-terminal carboxylate of ubiquitin and a lysine side-chain amino group on the target protein. Among them, ubiquitin specific proteases (USPs) constitute the largest DUB family. Human USPs are emerging as promising targets for pharmacological intervention because of their connection to a number of human diseases, including prostate, colon and breast cancer (1, 2), pediatric acute lymphoblastic leukemia (3), and familial cylindromatosis (4). The advantage of inhibiting USPs lies in the potential specificity of therapeutic intervention that can lead to better efficacy and reduce nonspecific side effects. In a collaboration between the University of Delaware and the NIH Chemical Genomics Center, a high-throughput screen assay was developed to screen for USP1/UAF1 inhibitors. This miniaturized assay has a fluorescent read-out and is used to screen the NIH Molecular Libraries Small Molecule Repository (MLSMR) in order to identify a small molecule that inhibits USP1. NIH Chemical Genomics Center [NCGC] NIH Molecular Libraries Probe Centers Network [MLPCN] MLPCN Grant: DA030552 Assay Submitter (PI): Zhihao Zhuang, University of Delaware 1. Priolo, C., et al. (2006) The isopeptidase USP2a protects human prostate cancer from apoptosis. Cancer Res 66, 8625-8632 2. Popov, N., et al. (2007) The ubiquitin-specific protease USP28 is required for MYC stability. Nat Cell Biol 9, 765-774 3. De Pitta, C., et al. (2005) A leukemia-enriched cDNA microarray platform identifies new transcripts with relevance to the biology of pediatric acute lymphoblastic leukemia. Haematologica 90, 890-898 4. Kovalenko, A., et al. (2003) The tumour suppressor CYLD negatively regulates NF-kappaB signalling by deubiquitination. Nature 424, 801-805
Chain of UniProt O94782 (O94782 whole entry, looked up): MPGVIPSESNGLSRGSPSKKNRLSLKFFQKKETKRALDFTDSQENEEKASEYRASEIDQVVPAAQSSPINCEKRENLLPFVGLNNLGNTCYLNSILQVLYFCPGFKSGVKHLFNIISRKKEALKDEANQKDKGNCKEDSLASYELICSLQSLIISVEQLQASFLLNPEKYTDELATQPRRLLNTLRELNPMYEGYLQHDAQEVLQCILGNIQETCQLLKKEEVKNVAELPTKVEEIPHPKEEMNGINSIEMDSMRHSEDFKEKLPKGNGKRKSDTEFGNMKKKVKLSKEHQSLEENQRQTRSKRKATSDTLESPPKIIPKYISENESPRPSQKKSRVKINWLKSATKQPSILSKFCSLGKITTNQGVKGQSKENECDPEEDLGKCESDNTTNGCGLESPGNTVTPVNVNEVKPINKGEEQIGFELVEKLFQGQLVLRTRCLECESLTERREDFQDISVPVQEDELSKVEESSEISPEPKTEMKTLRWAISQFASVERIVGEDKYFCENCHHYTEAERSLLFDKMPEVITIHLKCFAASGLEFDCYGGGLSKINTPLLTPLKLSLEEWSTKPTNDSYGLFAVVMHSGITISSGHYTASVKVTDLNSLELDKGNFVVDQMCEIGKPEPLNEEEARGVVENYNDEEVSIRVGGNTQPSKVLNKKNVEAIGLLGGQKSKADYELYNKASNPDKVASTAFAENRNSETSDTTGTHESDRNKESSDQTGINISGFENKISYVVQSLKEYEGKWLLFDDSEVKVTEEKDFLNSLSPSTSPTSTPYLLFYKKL
3 microliters of reagents (buffer in columns 3 and 4 as negative control and 1nM USP1/UAF1 complex in columns 1, 2, and 5-48) are dispensed into Greiner black solid bottom 1536-well assay plates. Compounds are then transferred via Kalypsys pin tool equipped with 1536-pin array (10nl slotted pins, V&P Scientific, San Diego, CA). Following an incubation step of 15 min at room temperature, 1ul of Ub-Rho substrate (150nM final concentration) is added to initiate the reaction. The plates are immediately centrifuged at 1000 rpm for 15 seconds, and subsequently transferred to a ViewLux high-throughput CCD imager (PerkinElmer) wherein kinetic measurements of fluorescence are acquired using 480 nm excitation/540 nm emission filter set (6 reads every 60 seconds, see Table 1). All reagents are diluted in an assay buffer consisting of 50mM HEPES (pH 7.8), 0.5mM EDTA, 0.1 mg/ml BSA, 1mM TCEP, and 0.01% Tween-20.
As to `C[C@H]1CN([C@@H](C)CO)C(=O)CCCn2nncc2CO[C@@H]1CN(C)S(=O)(=O)c1ccc(Oc2ccccc2)nc1`, the “activity change, negative = inhibition” value was inactive: -22.8%.

For the compound `O=C(NC1CC(=O)N(c2ccccc2)C1)c1ccc(S(=O)(=O)N2CCOCC2)cc1` (centres undefined), the “activity change, negative = inhibition” value is inactive: 3.36%.

For the compound `C[C@@H]1CN([C@@H](C)CO)C(=O)CCCn2nncc2CO[C@@H]1CN(C)C(=O)c1ccc2ccn(C)c2c1`, the “activity change, negative = inhibition” value is inactive: -24.3%.

Take `CCOC1=C/C(=C/c2c(N)n3nc(CC(=O)N4CCCCC4)sc3nc2=O)C=CC1=O`: the “activity change, negative = inhibition” value was inactive: 37%.

As for `N#CC1=C2SCN(Cc3ccco3)CN2C(=O)CC1c1c(F)cccc1Cl` (centres undefined), the Potency is active: 12.6 µM.

Take `C[C@H]1COC(=O)[C@@H](Cc2ccc(F)cc2)C/C=C\C[C@H](CC(=O)NCCO)C(=O)N1`: the “activity change, negative = inhibition” value was inactive: -6.21%.

In the case of `C[C@@H]1COC(=O)[C@@H](NC(=O)OCC2c3ccccc3-c3ccccc32)C/C=C\C[C@@H](CC(=O)N(CCO)Cc2ccccc2)C(=O)N1`, the “activity change, negative = inhibition” value is inactive: -20.3%.

In the case of `COC(=O)c1nnn(CC(=O)NC(=O)Nc2ccccc2F)c1C(=O)OC`, the “activity change, negative = inhibition” value was inactive: -3.83%.

Turning to `COc1ccccc1C(=O)Nc1cc(-c2ccc(C)cc2)no1`, the “activity change, negative = inhibition” value is inactive: -6.48%.

With `O=C(O)c1ccc(-c2ccc(/C=N/Nc3ccc([N+](=O)[O-])cc3)o2)cc1`, the Potency is active: 12.6 µM.

For the compound `C[C@H](CO)N1C[C@H](C)[C@@H](CN(C)CC2CCCCC2)Oc2c(NC(=O)C3CC3)cccc2C1=O`, the “activity change, negative = inhibition” value was inactive: -19.2%.

As to `C[C@H]1CN=C2N(CCNC(=O)CCC3CCCCC3)[C@H](Cc3ccc(O)cc3)CN21`, the “activity change, negative = inhibition” value was inactive: 3.83%.

Consider `COC(=O)N(C)C[C@H]1OCc2cnnn2CCCC(=O)N([C@@H](C)CO)C[C@@H]1C`, for which the “activity change, negative = inhibition” value was inactive: -13.5%.

For the compound `C=CC[C@@H](Cc1ccc(F)cc1)C(=O)OC[C@H]1CCCN1C(=O)[C@H](CC=C)CC(=O)N(CCO)Cc1ccccc1`, the “activity change, negative = inhibition” value was inactive: -15.9%.

Regarding `CCOC(=O)C1=C(C)N[C@@]2(O)c3ccccc3C(=O)[C@@]12O`, the “activity change, negative = inhibition” value was inactive: -21.3%.

In the case of `Cc1oc2ccc(NS(=O)(=O)c3ccc(F)cc3)cc2c1C(=O)O`, the “activity change, negative = inhibition” value was inactive: -11.1%.

As for `COC(=O)c1cc2occc2n1Cc1nc(-c2ccccc2C)oc1C`, the “activity change, negative = inhibition” value is inactive: 3.44%.

Regarding `CSC1=NSC2=NC(=O)/C(=C/c3coc4ccc(O)cc4c3=O)C(=N)N12`, the Potency was active: 22.4 µM.

For `C=CCC[C@@H](Cc1ccc(F)cc1)C(=O)OC[C@@H](Cc1c[nH]c2ccccc12)NC(=O)[C@@H](CC=C)CC(=O)N(CCO)Cc1ccccc1`, the “activity change, negative = inhibition” value is inactive: -20.5%.

On to `C[C@@H]1COC(=O)[C@H](CC(=O)OC(C)(C)C)C/C=C\C[C@@H](CC(=O)N(CCO)Cc2ccccc2)C(=O)N1`, for which the “activity change, negative = inhibition” value was inactive: 2.23%.

As to `CCOC(=O)/C(=C/C1=CC(=C/N(C)C)/C(=O)O1)C(C)=O`, the Potency is active: 31.6 µM.

Take `CN(C)c1ccc(/C=C2\c3ccccc3C(=O)N2c2ccccc2)cn1`: the “activity change, negative = inhibition” value is inactive: 36%.

For the compound `Cc1nn(CCC(=O)NCc2ccc(N(C)C)cc2)c(=O)c2nn(-c3ccccc3)c(C)c12`, the “activity change, negative = inhibition” value was inactive: -19.4%.

As to `O=C(C1=C[C@@H](c2ccc(Br)cc2)C[C@@H](OCCCCO)O1)N1CCN(Cc2ccccc2)CC1`, the “activity change, negative = inhibition” value is inactive: -6%.

As for `Cc1[nH][nH]c(=O)c1C(c1c(C)[nH][nH]c1=O)c1cn(Cc2ccccc2Cl)c2ccccc12`, the Potency is active: 28.2 µM.

As to `O[C@@H]1CN(CC2CCCCC2)[C@@H](c2ccc(Cl)cc2)C[C@H]1n1cc(C2CC2)nn1`, the “activity change, negative = inhibition” value is inactive: -14.8%.

In the case of `C[C@@H]1CN([C@H](C)CO)C(=O)CCCn2nncc2CO[C@@H]1CN(C)S(=O)(=O)c1ccccc1F`, the “activity change, negative = inhibition” value was inactive: -14.4%.

Consider `CCOC(=O)c1c(NC(=O)/C=C/c2ccc(OC)cc2)sc2c1CCC(C)C2` (centres undefined), for which the “activity change, negative = inhibition” value is inactive: 31.4%.

Turning to `C[C@@H]1CN([C@H](C)CO)C(=O)CCCn2nncc2CO[C@H]1CN(C)Cc1cccc2c1OCCCO2`, the “activity change, negative = inhibition” value is inactive: -0.113%.

For `CCc1nn(CC(=O)NCCCc2ccccc2)c(=O)c2cc3c(OC)cccc3n12`, the “activity change, negative = inhibition” value is inactive: -22.7%.

In the case of `CC1=NN(c2ccccc2)C(=O)/C1=C/C=C/c1ccccc1`, the “activity change, negative = inhibition” value is inactive: -21.3%.

Regarding `CCOC(=O)C(=O)Nc1nnc2n1CCS2`, the “activity change, negative = inhibition” value is inactive: 29.4%.

With `CCOC(=O)/C(=C/C=C1\Sc2cc(OCC)c(OCC)cc2N1CC)C(C)=O`, the Potency is active: 22.4 µM.

Consider `O=C(Cn1ccc2ccccc2c1=O)NCCC(=O)Nc1ccc(F)cc1F`, for which the “activity change, negative = inhibition” value is inactive: 2.07%.

Turning to `COC(C[C@H]1O[C@@H]1[C@@H](O)COCc1ccccc1)OC`, the “activity change, negative = inhibition” value is inactive: -17.1%.

As to `Cc1cccc(NC(=O)Nc2ccc(Br)cc2)n1`, the “activity change, negative = inhibition” value was inactive: -13.3%.

For `Cc1cccc([C@H](NC(=O)OC(C)(C)C)C(=O)OC(C)(C)C)c1`, the “activity change, negative = inhibition” value was inactive: -1.65%.

As for `C=CC[C@@H](CC(=O)N[C@@H](CO)Cc1ccccc1)C(=O)N[C@H](COC(=O)[C@@H](CC=C)Cc1ccc(F)cc1)Cc1c[nH]c2ccccc12`, the “activity change, negative = inhibition” value was inactive: -21%.

Regarding `C#CCNC(=O)C1=C[C@H](c2coc3ccccc3c2=O)[C@@H](CCCO)[C@H](OCC)O1`, the “activity change, negative = inhibition” value was inactive: -8.68%.

For the compound `Cc1cc(C)n(-c2cccc(C(=O)O)c2)n1`, the “activity change, negative = inhibition” value is inactive: -1.12%.

For `Cn1cc(C(=O)Nc2ccc(C#N)cc2)c2ccccc2c1=O`, the “activity change, negative = inhibition” value is inactive: -17.6%.

In the case of `C[C@@H]1COC(=O)[C@@H](CC(=O)OC(C)(C)C)C/C=C\C[C@H](CC(=O)NCCO)C(=O)N1`, the “activity change, negative = inhibition” value was inactive: -24.9%.

Take `Cc1cc(C)c(NC(=O)Cn2nnc(C(=O)Nc3ccc(F)cc3F)c2N)c(C)c1`: the “activity change, negative = inhibition” value was inactive: -9.66%.

Take `CCOC(=O)/C=C1\SCC(=O)N1CC(=O)Nc1ccccc1OC(F)F`: the “activity change, negative = inhibition” value is inactive: -21.9%.

As to `Cn1cc(/C=C2\SC(=S)N(NC(=O)c3ccccc3)C2=O)c2ccccc21`, the “activity change, negative = inhibition” value is inactive: 53.3%.

Turning to `CCO[C@@H]1c2c(ccc3ccc(=O)oc23)OC(C)(C)[C@@H]1O`, the “activity change, negative = inhibition” value was inactive: -25.1%.

For the compound `O=C(CC1N=C2c3ccccc3N=C(SCc3ccccc3Cl)N2C1=O)NCc1cccs1` (centres undefined), the “activity change, negative = inhibition” value was inactive: 45.2%.

Consider `CCCCN1C(=O)C2Cc3c([nH]c4ccccc34)CN2C1=S` (centres undefined), for which the Potency is active: 25.1 µM.

For the compound `C=CCC[C@@H](Cc1ccc(F)cc1)C(=O)O[C@H](CNC(=O)[C@H](CC=C)CC(=O)N(CCO)Cc1ccccc1)c1ccccc1`, the “activity change, negative = inhibition” value was inactive: -21.9%.

Take `COc1ccc(C)cc1Nc1n[n+](-c2ccccc2)c(-c2cc([N+](=O)[O-])cc(OC)c2O)s1`: the “activity change, negative = inhibition” value is inactive: 83.2%.

With `CCN1C(=O)[C@H]2[C@@H](c3ccc(-c4ccc(OC)cc4)c(OC)c3)N3CCCC[C@@]3(C(=O)OC)[C@H]2C1=O`, the “activity change, negative = inhibition” value is inactive: -10.1%.

As to `COc1cc(CNc2ccc3[nH]c(=O)[nH]c3c2)cc(Br)c1OCc1ccc(F)cc1`, the “activity change, negative = inhibition” value is inactive: -9.46%.

Consider `C[C@@H]1CN([C@@H](C)CO)C(=O)CCCn2nncc2CO[C@@H]1CN(C)C(=O)NC1CCCCC1`, for which the “activity change, negative = inhibition” value was inactive: -14.1%.

For the compound `CC(NC(=O)C1CCN(S(=O)(=O)c2ccc3nc4c(c(C(=O)O)c3c2)CCCC4)CC1)c1ccccc1` (centres undefined), the “activity change, negative = inhibition” value was inactive: -24.1%.
